Measurements as given in PubChem BioAssay AID686979 (National Center for Advancing Translational Sciences (NCATS), 2013).
Several values for one entry are separate records, joined by “and”; a condition that tells them apart may be missing. Equal entries are not always repeated. Out of some 420,000 compounds screened, about 50,000 (12%) were called active. Inconclusive results, whose numbers are uncertain, are shown with a selection of clear calls. The call rests on the fitted dose curve; in most records, active means well fitted inhibition curve with a large enough effect; inconclusive means small, poorly fitted or top-dose-only effect; inactive means flat fitted curve, though single readings scatter. Where the call is inconclusive, the potency comes from a doubtful curve fit.
On the % scale 0 is the no-effect control and ±100 the full control effect; potency means the concentration at half of the fitted maximal effect; tags describe the fitted curve by direction and shape.

Assay: qHTS for Inhibitors of human tyrosyl-DNA phosphodiesterase 1 (TDP1): qHTS in cells in presence of CPT; further: nearly all actives have a fitted effect of over 55% in size
Details: chicken DT40 Tdp1-/-;hTDP1 cells + 20 nM CPT, ATP luminescence, 48 h; activity change, negative = growth inhibition: at 46.2 µM (top of the series) unless noted
Outline: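 Cell growth measured by CellTiter-Glo luminescence after a minimum 48 h, 37 C compound exposure with 20 nM CPT in Tdp1-knockout DT40 cells stably expressing hTDP1, seeded 400/well; qHTS titration format.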
For `CC(=O)N1CCN(c2ccccc2NC(=S)NC(=O)c2cc3ccccc3o2)CC1`, the Potency was inconclusive: 29.1 µM [inhibitor, single point]. For `CN(C)CCCNc1cc(-c2ccccc2)nc2cc(-c3cccc(F)c3)nn12`, the Potency was inconclusive: 29.1 µM [inhibitor, single point]. For `CCCC(=O)NCCCc1nc2ccccc2n1C(C)C`, the Potency was inconclusive: 16.4 µM [inhibitor, single point]. With `O=C(c1ccccc1)c1ccc2nc(N3CCN(c4ccccc4)CC3)c3nncn3c2c1` the Potency was active: 4.61 µM. For `Cc1nc2ccc(S(=O)(=O)CCC(=O)Nc3ccc(C(C)C)cc3)cc2s1`, the Potency was inconclusive: 29.1 µM [inhibitor, single point]. In the case of `Cc1cccc(N2CCN(S(=O)(=O)c3ccc4c(c3)C(C)(C)C(=O)N4C)CC2)c1C`, the Potency is reported as inconclusive: 14.6 µM [inhibitor, partial curve]. With `CC(C)(C)C(=O)NC(=O)Nc1ccccc1C(F)(F)F` the Potency was “inactive”. For `CCC1CCCCN1CCCNC(=O)c1cn(CC)c2ccc(S(=O)(=O)N(C)C3CCCCC3)cc2c1=O` (centres undefined), the Potency was inconclusive: 23.1 µM [inhibitor, single point] and inconclusive: 29.1 µM [inhibitor, single point]. In the case of `N#Cc1c([N+](=O)[O-])cc([N+](=O)[O-])cc1S(=O)(=O)Cc1ccccc1`, the Potency is reported as active: 0.206 µM. In the case of `CC(C)(C)c1ccc(C(=O)Nc2ccc(C(=O)OCc3cc(=O)n4ccsc4n3)cc2)cc1`, the Potency is reported as active: 20.6 µM. In the case of `COC(=O)[C@@]12CCCN1[C@H](c1ccc(-c3ccc4c(c3)OCO4)cc1)[C@H]1C(=O)N(C)C(=O)[C@H]12`, the Potency is reported as inconclusive: 18.4 µM [inhibitor, single point]. With `Clc1ccc(Nc2ncnc3c2nnn3Cc2ccccc2)cc1` the Potency was “inactive”. With `O=C(CCC1CCCN(C(=O)c2ccccc2Cl)C1)N1CCN(c2ccccn2)CC1` (centres undefined) the Potency was inconclusive: 29.1 µM [inhibitor, single point]. For `O=C1OCCC1Sc1nc2ccccc2c(=O)n1Cc1ccc(F)cc1` (centres undefined), the Potency was “inactive”. For `Cc1cc(NC(=O)c2cc(-c3cccnc3)nc3c(C)c(C)ccc23)no1`, the Potency was inconclusive: 29.1 µM [inhibitor, single point]. With `CCN1CCCC1CNC(=O)Cn1nc(C)n2c(cc3cc(F)ccc32)c1=O` (centres undefined) the Potency was inconclusive: 6.51 µM [inhibitor, single point]. In the case of `COc1ccccc1Oc1ccc2c(c1)C(=O)N(CC1CCCO1)C2=O` (centres undefined), the Potency is reported as “inactive”. With `O=C(NCc1nc(-c2ccccc2)no1)Nc1ccc(F)cc1` the Potency was “inactive”. With `Cc1cc(C)cc(Cn2cc(CN3CC(N4CCSCC4)CS3(=O)=O)nn2)c1` (centres undefined) the Potency was “inactive”. For `CC(C)=CCC/C(C)=C/C=C/C(C)=C/C=C/C(C)=C/C=C/C=C(C)/C=C/C=C(C)/C=C/C=C(\C)CCC=C(C)C`, the Potency was inconclusive: 33.5 µM [inhibitor, single point]. In the case of `Cc1csc(NC(=O)C(NC(=O)c2ccccc2F)C(C)C)n1` (centres undefined), the Potency is reported as inconclusive: 23.1 µM [inhibitor, single point]. With `Cc1ccc(S(=O)(=O)N2CCN(C(=O)COC(=O)CCOc3ccccc3)CC2)c(C)c1` the Potency was inconclusive: 25.9 µM [inhibitor, single point]. With `CC(=O)C(C(C)=O)C1(O)C(=O)c2ccccc2C1=O` the Potency was active: 25.9 µM. For `CCOC(=O)c1csc(NC(=O)CN2CCCCC2)n1`, the Potency was “inactive”. With `CCOC(=O)C1=C(N)Oc2ccc3ccccc3c2C1c1cccnc1` (centres undefined) the Potency was “inactive”. For `COc1ccc(Cl)cc1NC(=S)N(CCN1CCOCC1)C1CCN(C(C)=O)CC1`, the Potency was “inactive”. In the case of `Cc1cc(C(=O)COC(=O)c2n[nH]c3ccccc23)c(C)n1CC1CCCO1` (centres undefined), the Potency is reported as “inactive”. With `CCOC(=O)N1CCc2c(sc3c2c(=O)n(Cc2ccccc2)c(=O)n3CC(=O)Nc2cccc(C)c2)C1` the Potency was “inactive”. In the case of `COc1ccccc1NC(=O)c1ccccc1N(Cc1ccccc1)S(C)(=O)=O`, the Potency is reported as inconclusive: 29.1 µM [inhibitor, single point]. With `CCOCCn1c(=NC(=O)c2ccc(S(=O)(=O)N3CCOCC3)cc2)sc2cc(S(N)(=O)=O)ccc21` the Potency was inconclusive: 23.1 µM [inhibitor, partial curve]. In the case of `O=C(CC1C[C@H](C(=O)N2CCCCC2)[C@@]2(CCc3ccccc3)c3[nH]c4ccccc4c3CCN2C1=O)NCCCn1ccnc1` (some centres undefined), the Potency is reported as inconclusive: 25.9 µM [inhibitor, single point]. In the case of `C=C(C)Cn1c(CCn2c3ccccc3c3ccccc32)n[nH]c1=S`, the Potency is reported as active: 9.2 µM. With `O=C1C=C(c2ccccc2)C[C@H](c2cccs2)[C@H]1n1nnc([N+](=O)[O-])n1` the Potency was active: 6.51 µM. In the case of `COC(=O)c1sc(-c2ccccc2)cc1NC(=O)Nc1ccccc1Cl`, the Potency is reported as “inactive”. With `O=C(/C=C/c1ccc(O)c(O)c1)O[C@@H]1C[C@@](OC(=O)/C=C/c2ccc(O)c(O)c2)(C(=O)O)C[C@@H](O)[C@@H]1O` the Potency was “inactive”. For `Cc1ccc(C)c(CSc2nc3[nH]ncc3c(=O)[nH]2)c1`, the Potency was active: 2.59 µM. For `O=P(c1ccccc1)(c1ccccc1)C(c1ccco1)N1CCOCC1` (centres undefined), the Potency was inconclusive: 10.3 µM [inhibitor, partial curve]. With `COC(=O)c1ccc(OC)c(CN2CCCN(Cc3ccc(F)cc3)S2(=O)=O)c1` the Potency was inconclusive: 32.6 µM [inhibitor, partial curve, poor fit]. For `Cc1occc(=O)c1OCc1c(Cl)cccc1Cl`, the Potency was “inactive”. For `COc1ccc(Cc2nc3ccc(C(=O)NC(C)c4cn(C)nc4C)cc3o2)cc1` (centres undefined), the Potency was inconclusive: 20.6 µM [inhibitor, single point]. With `COCCNC(=O)C(c1ccc(F)cc1)N(Cc1ccccc1)C(=O)CCC(=O)Nc1ccccn1` (centres undefined) the Potency was “inactive”. With `COc1cc2cnc(C3=CCCCC3)cc2cc1OC` the Potency was inconclusive: 29.1 µM [inhibitor, single point]. For `CC(=O)N1CCN(C2=NC(=O)/C(=C/c3ccc(OS(=O)(=O)c4ccccc4)cc3)S2)CC1`, the Potency was active: 20.6 µM. With `CN(CC(=O)NCc1ccco1)CC(=O)Nc1ccc(F)c(F)c1F` the activity change, negative = growth inhibition was inconclusive: -7.49% [inhibitor].
